The list shows a part of the results.
Columns and labels:
HSkMC = human skeletal muscle cells; assay: cytotoxicity call (relative viability < 0.9); details: 10 µM
S. aureus RN4220 = assay: growth inhibition call (relative growth <= 0.2); details: 50 µM

C[C@H]1CN([C@@H](C)CO)C(=O)CCCn2cc(nn2)CO[C@@H]1CN(C)C(=O)Nc1cccc2ccccc12
cytotoxicity call (HSkMC): inactive
growth inhibition call (S. aureus RN4220): inactive

C[C@H]1CCCCO[C@@H](CN(C)C(=O)Nc2ccc3c(c2)OCO3)[C@@H](C)CN([C@@H](C)CO)C(=O)c2cc(NC(=O)Nc3ccc(C(F)(F)F)cc3)ccc2O1
cytotoxicity call (HSkMC): inactive
growth inhibition call (S. aureus RN4220): inactive

Cn1c(=O)c2[nH]c(C3CCCC3)nc2n(C)c1=O
cytotoxicity call (HSkMC): inactive
growth inhibition call (S. aureus RN4220): inactive

O=C(C[C@@H]1C[C@@H]2c3cc(NC(=O)C4CCOCC4)ccc3O[C@@H]2[C@H](CO)O1)NCc1cc(F)ccc1F
cytotoxicity call (HSkMC): inactive
growth inhibition call (S. aureus RN4220): inactive

Cc1noc(C)c1S(=O)(=O)N(C)C[C@H]1Oc2ccc(NC(=O)CCC(F)(F)F)cc2CC(=O)N([C@@H](C)CO)C[C@@H]1C
cytotoxicity call (HSkMC): inactive
growth inhibition call (S. aureus RN4220): inactive

C[C@@H]1CN([C@H](C)CO)C(=O)c2cc(NS(=O)(=O)c3ccc(Cl)cc3)ccc2O[C@@H](C)CCCCO[C@@H]1CN(C)Cc1ccccc1
cytotoxicity call (HSkMC): inactive
growth inhibition call (S. aureus RN4220): inactive

COc1ccccc1C(=O)Nc1ccc2c(c1)C(=O)N(C)[C@H]1CC[C@@H](CC(=O)NCCc3ccncc3)O[C@H]1CO2
cytotoxicity call (HSkMC): inactive
growth inhibition call (S. aureus RN4220): inactive

Nc1ncnc2c1ncn2[C@H]1O[C@H](COP(=O)(O)O)[C@@H](O)[C@H]1O
cytotoxicity call (HSkMC): inactive
growth inhibition call (S. aureus RN4220): inactive

C[C@H]1CN([C@@H](C)CO)C(=O)c2cccc(NC(=O)C3CCOCC3)c2O[C@H]1CN(C)Cc1ccc(-c2ccccc2)cc1
cytotoxicity call (HSkMC): inactive
growth inhibition call (S. aureus RN4220): inactive

c1ccc(CNc2nn[nH]n2)cc1
cytotoxicity call (HSkMC): inactive
growth inhibition call (S. aureus RN4220): inactive

C[C@H](CO)N1C[C@H](C)[C@@H](CN(C)Cc2ccncc2)OCCCC[C@H](C)Oc2ccc(NC(=O)Nc3ccc(C(F)(F)F)cc3)cc2C1=O
cytotoxicity call (HSkMC): inactive
growth inhibition call (S. aureus RN4220): inactive

C[C@@H]1CN([C@@H](C)CO)C(=O)c2cc(NC(=O)NC3CCCCC3)ccc2O[C@H]1CN(C)Cc1ccc(C(F)(F)F)cc1
cytotoxicity call (HSkMC): inactive
growth inhibition call (S. aureus RN4220): inactive

COCC(=O)N1CC[C@@H]2N(S(C)(=O)=O)CC[C@@]2(C(=O)N2CCOCC2)CC1
cytotoxicity call (HSkMC): inactive
growth inhibition call (S. aureus RN4220): inactive

CCCNC(=O)N1C[C@H](O)COC[C@H]2O[C@@H](CC(=O)N3CCN(C)CC3)CC[C@@H]21
cytotoxicity call (HSkMC): inactive
growth inhibition call (S. aureus RN4220): inactive

COc1ccc(NC(=O)Nc2ccc3c(c2)[C@H]2C[C@H](CC(=O)NCc4ccccn4)O[C@@H](CO)[C@H]2O3)cc1
cytotoxicity call (HSkMC): inactive
growth inhibition call (S. aureus RN4220): inactive

— the antibiotic and cytotoxicity screens of Wong et al. (2023)
